Test results from PubChem BioAssay AID1963841 (Molecular Pharmacology Branch, DTP, NCI, 2024).
A number of entries come with more than one value. The other results are left out here. An entry can have further records. Values given together are repeated measurements in other runs, samples, wells, individuals or studies. Counts like (3×) give the number of equal values in this list. Dates in brackets are months of testing.

Test system: 439559-082-T-J2-PDC spheroid viability
Test: Anticancer human tumor 439559-082-T-J2-PDC patient-derived colon adenocarcinoma cell line growth inhibition [POLQ]
Conditions: spheroids with HUVEC and MSC; for viability, T/C: stronger effect = lower value
Method: Multicellular complex tumor spheroid response to Polymerase (POL) inhibitors (novobiocin, ART-558, RP6685) in combination with a variety of drugs and investigational agents in selected tumor cell lines
The POL inhibitors (novobiocin, ART-558, and RP6685) were evaluated both individually and in combination with standard of care and investigational anticancer small molecules within a complex spheroid model of solid tumors. . Complex spheroids include a stromal component modeled by human endothelial cells (HUVEC) and fibroblasts modeled by human mesenchymal stem cells (MSCs). The concentration ranges selected for each drug and investigational agent were based upon clinically achievable concentrations if the clinical Cmax of the agent was known.
Compounds. The drugs and investigational agents: novobiocin (NSC847541), ART-558 (NSC835418), RP-6685 (NSC848927), peposertib (NSC802822), ceralasertib (NSC780249), elimusertib (NSC800525), camonsertib (NSC841442), AZD-1390 (NSC803789), olaparib (NSC753686), talazoparib (NSC767125), rucaparib (NSC756644), sotorasib (NSC818433), MRTX-1133 (NSC836407), SN-38 (NSC673596), topotecan (NSC609699), epotoside (NSC141540), doxorubicin (NSC123127), gemcitabine (NSC613327), 5-fluorouracil (NSC19893), paclitaxel (NSC125973), vemurafenib (NSC761431), MSA-2 (NSC828583), SN-011 (NSC837082), adavosertib (NSC754352), prexasertib (NSC758257), carboplatin (NSC241240) and oxaliplatin (NSC266046), were obtained from the National Cancer Institute (NCI) Developmental Therapeutics Program Chemical Repository (21). The FDA-approved anticancer drug set is available from the Developmental Therapeutics Program at https://dtp.cancer.gov/organization/dscb/obtaining/. […] The stock solutions were prepared in dimethyl sulfoxide (DMSO, Sigma-Aldrich, St. Louis, MO, cat. D2650), except for the platinum compounds which were prepared in saline (Quality Biological, Gaithersburg, MD, cat. 114-055-101), at 800-fold the tested concentration and stored at -70 degrees C prior to their use. All drugs and investigational agents were tested over a range starting from a high concentration at or near the clinical Cmax and decreasing in half-log increments. If the clinical Cmax for an agent had not been determined, the highest concentration tested was 10 microM, except for SN-38, which was tested at a high concentration of 1 microM.
Cell Culture. All cells were maintained in an incubator at 37 degrees C and 5% CO2 with 95% humidity. The PDC lines were cultured according to standard operating procedures established by the NCI PDMR (https://pdmr.cancer.gov). Table 3 of the manuscript, lists the cell lines along with the number of the three cell types plated to form the mct-spheroids and media for tumor cell growth. After thawing, all PDC lines, except 997537-175-T-J1-PDC and 415267-285-R-J2-PDC, were cultured in Matrigel-coated flasks prepared with a working solution of 1X Ham's F-12 nutrient mix, without supplementation (Thermo Fisher Scientific, cat. 11765054), 100 U/mL penicillin-streptomycin (Thermo Fisher Scientific, cat. 15140122), and 2.5% Matrigel (Corning Inc., Corning, NY, cat. 354248) for the first three passages. The two PDC lines 997537-175-T-J1-PDC and 415267-285-R-J2-PDC were cultured on uncoated flasks. The 857933-349-R-J2-PDC line was cultured in 6C/Colon 1B media containing advanced DMEM/F-12 (Thermo Fisher Scientific, cat. 12634028), 10 mM HEPES (Thermo Fisher Scientific, cat. 15630080), 1X GlutaMAX supplement (Thermo Fisher Scientific, cat. 35050061), 0.1 mg/mL primocin (InvivoGen, San Diego, CA, cat. ant-pm-2), 10% defined fetal bovine serum, heat inactivated (HyClone Laboratories Inc., Logan, UT, cat. SH30070.03HI), 50% L-WRN conditioned media (ATCC, cat. CRL-3276), 1.25 mM N-Acetyl-L-cysteine (Sigma-Aldrich, cat. A9165), 10 mM nicotinamide (Sigma-Aldrich, cat. N0636), 1X B-27 supplement (Thermo Fisher Scientific, cat. 17504044), 1X N-2 supplement (Thermo Fisher Scientific, cat. […]
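Note: spheroids exposed to compounds for seven days before readout.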
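Throughout, for viability, T/C: 100% = DMSO vehicle control viability.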

`Nc1ccc(C#CCN(C(=O)Cc2ncc(C(F)(F)F)cc2C(F)(F)F)c2ccc(F)cc2)nn1` was tested, and the viability, T/C (compound alone 10 µM) was 106, 96.8 (2×), 92.1, 104 (2×), 116, 99.8, 102, 89.5, 93.2, 95.8, 96.9%.
With `CC1COCCN1c1cc(-c2ccnn2C)c2ccnc(-c3ccn[nH]3)c2n1` (stereo not drawn) the viability, T/C (compound alone 3.16 µM) was 23.5%, 54.5% [2023-11] and 55.6% [2023-12] and the IC50 (compound alone) was 277 nM, 505 nM [2023-11] and > 10 µM [2023-12].
With `CCCS(=O)(=O)Nc1ccc(F)c(C(=O)c2c[nH]c3ncc(-c4ccc(Cl)cc4)cc23)c1F` the viability, T/C (compound alone 0.1 µM) was 96.9% [2023-11] and 98.4%, 70.7% [2023-12], the viability, T/C (compound alone 3.16 µM) was 96.6% [2023-11] and 106%, 72.2% [2023-12] and the viability, T/C (compound alone 10 µM) was 68.3% [2023-11] and 84.5%, 43.6% [2023-12].
With `CC(=O)O[C@H]1C(=O)[C@@]2(C)[C@H]([C@H](OC(=O)c3ccccc3)[C@]3(O)C[C@H](OC(=O)[C@H](O)[C@@H](NC(=O)c4ccccc4)c4ccccc4)C(C)=C1C3(C)C)[C@]1(OC(C)=O)CO[C@@H]1C[C@@H]2O` the viability, T/C (compound alone 0.00949 µM) was 84.1% [2023-11] and 96.4%, 58.7% [2023-12] and the viability, T/C (compound alone 0.03 µM) was 78.7% [2023-11] and 77.3%, 52.2% [2023-12].
In the case of `O=C(c1cc(Cc2n[nH]c(=O)c3ccccc23)ccc1F)N1CCN(C(=O)C2CC2)CC1`, the viability, T/C (compound alone 0.1 µM) is reported as 55%, 94% [2023-11] and 89.9% [2023-12], the viability, T/C (compound alone 0.316 µM) is reported as 59.7%, 92% [2023-11] and 93.6% [2023-12] and the viability, T/C (compound alone 1 µM) is reported as 65.6%, 102% [2023-11] and 102% [2023-12]. For the same compound, the viability, T/C (compound alone 3.16 µM) was 71%, 95.7% [2023-11] and 102% [2023-12] and the viability, T/C (compound alone 10 µM) was 63%, 103% [2023-11] and 93% [2023-12].
With `CC(C)n1c(=O)n(C)c2cnc3cc(F)c(-c4ccc(OCCCN5CCCCC5)nc4)cc3c21` the viability, T/C (compound alone 0.0316 µM) was 59.3%, 98.5% [2023-11] and 111% [2023-12], the viability, T/C (compound alone 0.1 µM) was 56%, 107% [2023-11] and 105% [2023-12] and the viability, T/C (compound alone 0.316 µM) was 71.7%, 107% [2023-11] and 100% [2023-12]. For the same compound, the viability, T/C (compound alone 1 µM) was 91.3%, 120% [2023-11] and 106% [2023-12] and the viability, T/C (compound alone 10 µM) was 60.8%, 93.4% [2023-11] and 99.6% [2023-12].
